These results are taken from ChEMBL document CHEMBL4888484, “Replenishing the malaria drug discovery pipeline: Screening and hit evaluation of the MMV Hit Generation Library 1 (HGL1) against asexual blood stage Plasmodium falciparum ,using a nano luciferase reporter read-out” (2022).

Screen size: about 150,000 compounds; about 540 (0.36%) showed an effect of 50% or more. The list shows a part of the results.

For the test, the system named is Plasmodium falciparum. Description: Primary screen in NF54 nanoGlo assay, in single point, at 2uM, 72h; a lower Z score goes with more inhibition. The test is classed as functional, Erythrocyte. As to conditions: timepoint 72 hour.
For the molecule `O=C(c1ccc2nc[nH]c2n1)N1CCN[C@H](c2cccc(Cl)c2)C1`, the “% Inhibition” value was -7% and the Z score is on record as 0.85.

As to `Cc1noc(-c2cc(S(=O)(=O)Nc3cccc(Cl)c3C)c(C)s2)c1C`, the “% Inhibition” value is -12% and the Z score is 1.16.

Take `CNC(=O)CCOc1ccc(C)cc1C`: the “% Inhibition” value came to 2% and the Z score is recorded as -0.3.

Regarding `c1cnn(-c2cncc(NCCC3CC4CCC3C4)n2)c1` (stereo unspecified), the “% Inhibition” value is -13% and the Z score is recorded as 1.34.

As for `O=C(Cc1ccccc1Cl)Nc1ccc(NC(=O)c2ccco2)cc1`, the “% Inhibition” value stood at 5% and the Z score is reported as -0.6.

`COCCN(C)C(=O)c1cnc(N(C)C)nc1[C@H]1CCN(S(C)(=O)=O)C1`: the “% Inhibition” value is given as -7% and the Z score worked out at 0.77.

As to `CC(C)n1nccc1C(=O)N1C[C@H]2CC[C@@H](C1)[C@H]2O`, the “% Inhibition” value amounted to 1% and the Z score was -0.11.

Regarding `Cc1ncsc1CCC(=O)N1C[C@@H]2CC[C@H]1CN(Cc1ccccn1)C2`, the “% Inhibition” value is given as -3% and the Z score was 0.41.

Turning to `Nc1nc(Cc2ccc(Br)cc2)cs1`, the “% Inhibition” value is -8% and the Z score was 0.76.

Consider `Cc1ccc(-n2cccn2)cc1S(=O)(=O)NCCN1CCCC[C@@H]1CO`, for which the “% Inhibition” value is reported as -2% and the Z score is 0.4.

Turning to `C[C@@]1(NC(=O)Cn2nc(C(F)(F)F)c3c2CCOC3)CC=CCC1`, the “% Inhibition” value amounted to 5% and the Z score is on record as -1.

Consider `CC(NC(=O)C1CCOC1)C(O)c1c(F)cccc1Cl` (stereo unspecified), for which the “% Inhibition” value is -1% and the Z score is on record as 0.07.

`c1ccc(-n2ncc3c(NC4CCN(C5CC5)CC4)ncnc32)cc1`: the “% Inhibition” value was 5% and the Z score is -0.76.

For the molecule `Cc1n[nH]c(CN2C[C@H](c3ccccc3)C(C)(C)C2)n1`, the “% Inhibition” value is reported as -10% and the Z score is on record as 1.95.

With `O=C(Nc1ccc2nccnc2c1)c1cccc(CN2CCC[C@H](O)C2)c1`, the “% Inhibition” value is -18% and the Z score was 1.64.

As for `CCS(=O)(=O)C1CN(C(=O)C(C)(C)c2cccc(Cl)c2)C1`, the “% Inhibition” value is recorded as -1% and the Z score was found to be 0.08.

For the molecule `CC1CCC(NS(=O)(=O)c2ccc3c(c2)NC(=O)CO3)CC1` (stereo unspecified), the “% Inhibition” value was -1% and the Z score is reported as 0.19.

As for `O=C(NCC1CC1)[C@@]1(CCO)CCN(c2ncccn2)C1`, the “% Inhibition” value is -6% and the Z score was 1.2.

As to `CS(=O)(=O)[C@@H](Cc1ccccc1)c1nc(-c2ccccn2)no1`, the “% Inhibition” value was -6% and the Z score is on record as 0.64.

In the case of `Cc1cc(C(=O)NCc2nc3ccccc3s2)no1`, the “% Inhibition” value came out at 2% and the Z score is -0.32.

For `CC(C)OCC(O)CN(CC(=O)N1CCc2sccc2C1COc1ccc(F)cc1)CC1CC1` (stereo unspecified), the “% Inhibition” value was -30% and the Z score is 2.89.

As for `O=C(CCc1cccnc1)N[C@H]1CN(C(=O)c2ccc(F)cc2)C[C@@H]1C1CC1`, the “% Inhibition” value is -1% and the Z score is recorded as 0.14.

For the molecule `O=C(NCC1CC12CCCc1ccccc12)C1CCCc2[nH]ncc21` (stereo unspecified), the “% Inhibition” value is -6% and the Z score is 0.8.

Take `COCC1(CNc2ncnc3[nH]ccc23)CCCC1`: the “% Inhibition” value is reported as -3% and the Z score stood at 0.38.

Regarding `O=C(c1ccc(C(F)(F)F)cc1)N1CC2CN(S(=O)(=O)c3ccccc3)CC(C1)O2`, the “% Inhibition” value is reported as -24% and the Z score turned out to be 2.1.

As for `COc1c(F)c(F)c(CN2CCN(C)[C@@]3(CCNC(=O)CC3)C2)c(F)c1F`, the “% Inhibition” value was -9% and the Z score amounted to 1.1.

In the case of `Cc1cc(C(=O)N2CC[C@H](Oc3cncc(N(C)C)n3)C2)no1`, the “% Inhibition” value was -7% and the Z score was found to be 0.82.

Regarding `COc1ccc(OC[C@H]2CC3(CCCCC3)CN2C(=O)c2cnccn2)cc1`, the “% Inhibition” value is given as -20% and the Z score stood at 3.4.

Turning to `CCOC(=O)N1CCC(NCc2c(C(=O)O)c(C)n(Cc3cccc(Cl)c3)c2C)CC1`, the “% Inhibition” value is -7% and the Z score amounted to 1.3.

For the molecule `CCN(CCC(=O)OC)S(=O)(=O)c1cccc2ccncc12`, the “% Inhibition” value is listed as -1% and the Z score came to 0.23.

As for `COCc1noc(CN2CCN(c3ccncc3)C[C@@H](O)C2)n1`, the “% Inhibition” value is reported as -7% and the Z score is listed as 0.8.

As for `Cc1cccc(CN(CCc2c[nH]c3ccccc23)Cc2nc(C(=O)NC[C@H]3CCCO3)co2)c1`, the “% Inhibition” value is -2% and the Z score came to 0.36.

For `COc1ccccc1CCNC(N)=NC1CCCC1`, the “% Inhibition” value is recorded as -5% and the Z score stood at 1.02.

In the case of `CC1CCc2sc(NC(=O)c3ncn(C)n3)c(C#N)c2C1C` (stereo unspecified), the “% Inhibition” value is reported as -6% and the Z score is reported as 1.05.

For the molecule `CCc1nnc(CNC(=O)c2cc(C(C)C)n3ncnc3n2)s1`, the “% Inhibition” value came to 7% and the Z score is on record as -1.03.

With `CCCCc1nn(CC(=O)N[C@@H]2COC3(CCCC3)C2)c(=O)n1CC`, the “% Inhibition” value came out at 1% and the Z score is recorded as -0.27.

For the molecule `CCn1cc(S(=O)(=O)N2CC(Nc3ccccc3)C2)cn1`, the “% Inhibition” value came out at 2% and the Z score is -0.29.

In the case of `O=C(Nc1cn[nH]c1)[C@H]1CCCN(C(=O)N2CCc3sccc3C2)C1`, the “% Inhibition” value is -22% and the Z score is 3.43.

Regarding `COc1c(O)cnn(C2CCCCC2)c1=O`, the “% Inhibition” value is listed as -6% and the Z score worked out at 1.19.

For `CCOc1ncccc1Cn1cc(-c2cc3c(cc2C)OCO3)nn1`, the “% Inhibition” value is -5% and the Z score is reported as 0.95.

As for `Cc1cnc(NCCNC(=O)OCc2ccccc2)nc1`, the “% Inhibition” value is on record as -4% and the Z score stood at 0.49.

Regarding `COc1ccccc1-c1cc(-c2ccccc2OC)n(-c2nc(-c3ccc(Cl)cc3)cs2)n1`, the “% Inhibition” value stood at 33% and the Z score is -3.73.

Regarding `Cc1ccc(CCN(CC#N)S(=O)(=O)N(C)C)cc1`, the “% Inhibition” value is given as -1% and the Z score worked out at 0.19.

Take `CC(C)NC(=O)Cc1noc([C@H]2CCCOCC2)n1`: the “% Inhibition” value was -2% and the Z score is listed as 0.39.

On to `O=C(C[C@@H]1CCN2C[C@@H]1/C=C/COc1ccc(Br)cc1CNCC2=O)NCc1ccncc1`, for which the “% Inhibition” value is 0% and the Z score is on record as -0.04.

For `COc1ccccc1C1CN2C(=O)N(c3ccc(S(=O)(=O)c4ccc(C)cc4)cc3)C(=O)[C@]2(C)c2[nH]c3ccccc3c21` (stereo partly specified), the “% Inhibition” value is reported as -12% and the Z score turned out to be 1.04.

In the case of `Cc1cc(N2CCCO[C@@H](C)C2)nc(-c2cccs2)n1`, the “% Inhibition” value amounted to 1% and the Z score was -0.05.

As for `CCCC1(CCC)NC(=O)N(Cc2cn3cc(Cl)ccc3n2)C1=O`, the “% Inhibition” value is given as -11% and the Z score is on record as 1.1.

For `Cc1ccc(Cn2c(=O)c3sccc3n(CC(=O)Nc3nc4ccccc4s3)c2=O)cc1C`, the “% Inhibition” value was -8% and the Z score is on record as 0.92.

Regarding `O=C(c1cn(Cc2cccs2)nn1)N1CCc2ccc(F)cc2C1`, the “% Inhibition” value is on record as -14% and the Z score is given as 2.67.

For the molecule `COc1cccc([C@H]2CC(O)=Nc3c2ncn3-c2cccnc2)c1OC(C)C`, the “% Inhibition” value worked out at 28% and the Z score is -3.13.

Regarding `C/C=C(\C)CN1CCC[C@H](CNC(=O)C2CCOCC2)C1`, the “% Inhibition” value is -11% and the Z score was found to be 2.09.

For the molecule `CC(C)c1ccc(-n2nc(C(=O)NC3CC3)c(=O)n(Cc3cccc(C(F)(F)F)c3)c2=O)cc1`, the “% Inhibition” value was -6% and the Z score amounted to 0.75.
